Measured values published in PubChem BioAssay AID1963576 (National Center for Advancing Translational Sciences (NCATS), 2024).
The whole screen tested about 46,000 compounds, of which about 60 (0.1%) were called active. Inconclusive results (about 3%) are left out. Calls follow the shape of the dose curve; as a rule, active = well fitted inhibition curve with a large enough effect; inconclusive = small, poorly fitted or top-dose-only effect; inactive = no such curve, though single readings can be large or run the other way. Some of the results follow.

Experiment: Primary qHTS assay for Inhibitors of ovarian cancer metastasis using an organotypic tumor microenvironment (TME) model. Also: nearly all actives have a fitted effect of over 65% in size.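 As to activity change, negative = inhibition: plate controls were DMSO wells for no effect and tomatine positive control wells for full effect.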
Conditions: SKOV3ip1-GFP adhesion/invasion on 3D omental model, fluorescence; series mostly up to 45.8 µM; activity change, negative = inhibition: at the top concentration
Method in brief: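 qHTS, 4-pt dose (0.36-46 umol/L); SKOV3ip1-GFP, 1,200 cells/well, no FBS; primary omental fibroblast/mesothelial co-culture 48 h pre-grown; 2 h RT + 16 h 37 C; PBS wash, 4% PFA; GFP count 488/509 nm.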

Activity change, negative = inhibition, inactive:
CCc1cccc(C)c1NC(=O)c1cc(S(=O)(=O)N(C)Cc2ccccc2)ccc1F 2.55%, COc1ccc(-c2cc(OC(=O)c3ccccc3C)c3c(C)oc(C)c3c(=O)c2)cc1 -2.04%, Cc1ccc(-n2ncc3c(N4CCCCC4)ncnc32)cc1Cl 3.92%, CC(=O)N1CCCc2cc(S(=O)(=O)N(CCN(C)C)Cc3ccccc3)ccc21 -1.93%, CCc1ccc2oc(C(=O)NCC(c3ccc(Cl)cc3)N3CCOCC3)c(C)c2c1 (stereo not given) -0.898%, CCOC(=O)c1c(C)oc2nc(C)nc(Nc3cc(C)cc(C)c3)c12 6.17%, Cc1csc2nc(COC(=O)c3ccc(F)cc3)cc(=O)n12 9.73%, O=C(CSc1nc2ccccc2n1Cc1ccc(F)cc1)N1CCN(c2ccc(F)cc2)CC1 -6.16%, CCc1ccc(-c2nc(CN3CCC(C(=O)NCCc4ccc(C)cc4)CC3)c(C)o2)cc1 9.09%, Cc1nnc(N2CCC(C(=O)NCCc3ccccc3)CC2)c2nn(-c3ccccc3)c(C)c12 -7.41%, O=C(Nc1ccc(OCc2cc(=O)n3ccsc3n2)cc1)c1ccc(F)cc1 -17.2%, COc1ccc(CNC(=O)CSCc2nc(-c3ccccc3F)oc2C)cc1 5.34%, Cc1ccc(C)c(NC(=O)Cn2cnc3c(oc4ccccc43)c2=O)c1 15%, CCc1ccc(C2=CC(c3cccc(C)c3)n3c(nc4ccccc43)N2)cc1 (stereo not given) -6.91%, Cc1cccc(N(CC(=O)NCc2ccccc2)S(C)(=O)=O)c1C 1.9%, COc1ccc(NC(=O)C(c2ccccc2)N2Cc3ccccc3C2=O)cc1 (stereo not given) -23.1%, C=CC(=O)Nc1cc(NC(=O)c2ccc(C)c(NC(=O)c3ccno3)c2)cc(C(F)(F)F)c1 -10.7%, Cc1ccccc1OCCn1cc(C(=O)C2CCCCC2)c2ccccc21 -0.59%, CCOC(=O)Cn1c(C2CC(=O)N(c3ccc(C)cc3)C2)nc2ccccc21 (stereo not given) 3.5%, O=[N+]([O-])c1ccc(C(c2sc3nc(-c4ccco4)nn3c2O)N2CCN(Cc3ccccc3)CC2)cc1 (stereo not given) 1.14%, O=C(Nc1ccc2c(c1)OCO2)c1cc(-c2cccc(Cl)c2)on1 1.38%, COc1ccc(C)cc1Nc1c2c(nc3ccccc13)CCC2 0.0845%, CC(=O)c1ccc(NC(=O)COc2ccccc2-c2nc(C(C)C)no2)cc1 0.11%, CC(C)C[C@H](CC(=O)O)C(=O)N[C@@H](Cc1c[nH]c2ccccc12)C(=O)N[C@@H](C)c1ccccc1 5.8%, CC(C)(C)C(=O)Cn1c(=O)n(CCCCCC(=O)NCc2ccccc2Cl)c(=O)c2sccc21 11.7%, Cc1ccc(NC(=O)C(Cc2ccccc2)NS(=O)(=O)c2ccc3c(c2)oc(=O)n3C)cc1C (stereo not given) 5.02%, CCc1ccc(NC(=O)Cn2c(C(=O)OC)cc3oc(C)cc32)cc1 8.54%, CCN1CCN(Cc2nc3cc(NC(=O)c4cccc([N+](=O)[O-])c4)ccc3n2CC)CC1 -11.6%, O=C(CSc1nc(-c2ccco2)nc2cc(=O)[nH]n12)Nc1ccc(F)cc1 0.939%, Cc1ccc(C)c(NC(=O)CSc2nnc(NC(=O)Nc3ccccc3)s2)c1 2.19%, CCCCCCC(=O)Nc1cc2nc3c(nc2cc1C)c(=O)n(C)c(=O)n3C 3.05%, Cc1ccc(CCNC(=O)C(C)n2nc(C)c3c(C)n(-c4ccc(C)cc4)nc3c2=O)cc1 (stereo not given) -20.2%, CCc1ccc(C2CC(=O)c3c([nH]c(C(=O)OC4CCCCCC4)c3C)C2)cc1 (stereo not given) 0.532%, COc1ccc(CCNC(=O)c2nc(SCc3ccc(F)cc3)ncc2Cl)cc1OC 5.08%, CCOC(=O)N1CCC(NC(=O)c2ccc3c(c2)N(Cc2ccc(F)cc2)C(=O)c2ccccc2S3=O)CC1 (stereo not given) 30%, COc1ccc(NC(=O)c2cc(=O)c3cc(C)cc(C)c3o2)cc1 0.237%, CCOc1cccc2sc(NC(=O)c3ccc(S(=O)(=O)N4CCCCC4)cc3)nc12 -21.4%, O=C(NCCS(=O)(=O)N1CCN(c2ccc(F)cc2)CC1)c1ccccc1Br -6.8%, Cc1ccc(CNC(=O)c2cc(=O)c3cc(C)c(C)cc3o2)cc1 8.24%, CC1CCCCN1Cc1c(O)ccc2c(=O)c(-c3ccc(Cl)cc3)coc12 (stereo not given) 5.95%, CCOC(=O)c1c(-c2ccc(Br)cc2)csc1NC(=O)c1ccc(C(C)(C)C)cc1 -2.28%, CCCS(=O)(=O)c1nc(S(=O)(=O)c2ccc(C)cc2)c(NCC(C)C)s1 6.39%, CC1CCN(S(=O)(=O)c2ccc3c(ccc(=O)n3CC(=O)NCc3ccccc3)c2)CC1 2.94%, COc1ccc(NC(=O)c2cc3c(=O)n(C)c4cc(Cl)ccc4c3s2)cc1Cl 3.44%, CC(=O)Nc1cccc(NC(=O)CSc2cn(CC(=O)N3CCCC3)c3ccccc23)c1 1.62%, COc1ccccc1NC(=O)C1=C(C)Nc2nc(-c3ccco3)nn2C1c1cccc(C)c1 (stereo not given) -11.7%, Cc1noc2ncnc(N3CCCC(C(=O)Nc4cc(F)ccc4F)C3)c12 (stereo not given) 0.568%, CCC(=O)Nc1ccc(C)cc1-c1nc2ccccc2n(CC(=O)c2ccc(C)cc2)c1=O -0.875%, CS(=O)(=O)c1ncc(N(Cc2ccco2)Cc2cccs2)c(C(=O)Nc2ccccc2F)n1 -0.138%, Cc1cc(-n2c(SCc3ccccc3F)nc3[nH]ncc3c2=O)ccc1Cl -6.86%, CCc1c(C)sc2c1CCN(C(=O)Nc1ccccc1Cl)C2c1ccc(OC)cc1 (stereo not given) 23.1%, COc1ccc(N2C(=O)NC(NS(=O)(=O)c3ccc(NC(C)=O)cc3)(C(F)(F)F)C2=O)cc1 (stereo not given) 4.73%, CC1CCc2onc(C(=O)N3CCN(c4ccc(Cl)cc4)CC3)c2C1 (stereo not given) -3.88%, Cc1ccc(Cn2ccn(Cc3ccc(C)cc3)c(=O)c2=O)cc1 17.7%, CCN1CCN(C(=O)Cn2c(-c3cccs3)cc3cc(Cl)ccc32)CC1 -17.5%, Cc1ccc(C)c(N2CCN(C(=O)CCc3c(C)nc4c(c3C)c(=O)n(C)c(=O)n4C)CC2)c1 -15.3%, COc1ccc(CNC(=O)Cc2c(C)c3c(O)cc(C)cc3oc2=O)cc1 6.51%, CCOC(=O)c1cc2c(=O)n3ccccc3nc2n(CC(C)C)c1=NC(=O)C(C)(C)Oc1ccc(Cl)cc1 1.25%, Cc1ccc(C(=O)N2CC(=O)Nc3ccc(Br)cc3C2c2ccc(F)cc2)cc1C (stereo not given) -11.6%, CCc1ccc(NC(=O)Cn2cnc3nc4c(cc3c2=O)CCCC4)cc1 0.509%, COc1ccc(C(CNC(=O)c2oc3ccccc3c2C)N2CCCCC2)cc1 (stereo not given) 0.872%, COc1ccccc1CNC(=O)C1CCN(c2ncnc3c2nc2n3CCCCC2)CC1 0.438%, O=C1CCCc2cc(S(=O)(=O)N3CCCC(C(=O)NCc4ccccc4Cl)C3)ccc2N1 (stereo not given) 22.6%, COc1cc(Cl)c(C)cc1NC(=O)c1c(C)oc2nc(C)nc(N3CCCC3)c12 -25.5%, Cc1cc(C)cc(NS(=O)(=O)c2ccc3[nH]cc(C(=O)N4CCCCC4)c(=O)c3c2)c1 0.906%, CCC(=O)N1CCc2cc(CNS(=O)(=O)c3ccccc3F)ccc21 -8.52%, Cc1ccc(-n2c(=O)c3oc4ccccc4c3n(Cc3ccccc3)c2=O)cc1C -3.02%

outcome, inactive:
Cc1cc(C)c2c(=O)cc(C(=O)Nc3ccc(C)c(Cl)c3)oc2c1, COc1ccccc1-c1cc(C(=O)N2CCN(c3ccccc3)CC2)no1, COCCn1c(-c2ccccc2)c(C)n2c3c(=O)n(C)c(=O)n(C)c3nc12, CCC(=O)N1c2ccccc2CC1C(=O)NCCc1ccc(SC)cc1 (stereo not given), Cc1ccc(C)c(N2CCN(C(=O)Cn3cnc4sc(C)c(S(=O)(=O)N5CCN(c6ncccn6)CC5)c4c3=O)CC2)c1, O=C(COc1ccccc1)Nc1nnc2n1CCS2, CCOC(=O)C1CCN(S(=O)(=O)c2cc(-c3cc(C)no3)ccc2OC)CC1, CCOC(=O)c1c(C)[nH]c(C)c1S(=O)(=O)NCC(=O)Nc1cc(Cl)ccc1OC, CC(=O)c1ccc(N2CCN(C(=O)Nc3cn(CC(C)C)c(=O)c4ccccc34)CC2)cc1, COc1cc(OC)cc(-c2nc3nc(C)c(CCC(=O)Nc4ccccc4)c(C)n3n2)c1, COc1ccc(C2CC(=O)Nc3cc4c(cc32)OCO4)c(OC)c1 (stereo not given), COc1ccc(NC(=O)CN2CCN(C3CCCCC3)C(=O)C2=O)cc1, COc1ccc(CNC(=O)C2CCCN(C(=O)c3cnn(-c4ccc(F)cc4)c3-n3cccc3)C2)cc1 (stereo not given), Cc1ccc(CCNC(=O)c2oc(=O)c3ccccc3c2-c2ccc(C)cc2)cc1, CC(CNc1nc2ccccc2c2nc(-c3ccccc3)nn12)c1ccccc1 (stereo not given), CCOC(=O)c1c(C)c(C(=O)NCc2ccc(Cl)cc2)c(C)n1C, CCc1ccc(-n2c(=O)c3c(C)c(C(=O)N(C)C)sc3n(CC(=O)Nc3cc(Cl)ccc3C)c2=O)cc1, CCCCNC(=O)Cn1c(=O)cc(C)c2c(C)nn(-c3cccc(Cl)c3C)c21, CC(C)(C)OC(=O)N1CCC(c2c(C(=O)NCc3ccco3)cnn2-c2ccc(F)cc2F)CC1, COc1ccc(Cl)cc1NC(=O)C(C)n1c(=O)cc(C(F)(F)F)c2c(C)nn(C)c21 (stereo not given), CC(C)(C)OC(=O)N1CCC(c2nnc(SCc3ccccc3Cl)o2)CC1, Cc1cc(Cl)ccc1NC(=O)C1CCCN1S(=O)(=O)c1ccc2c(c1)CCCC(=O)N2 (stereo not given), Cc1ccc(-c2noc(-c3ccc(NC4CCCC4)c([N+](=O)[O-])c3)n2)cc1, CCOc1ccc(CNC(=O)CCCn2nc(C)c3c(C)n(-c4ccc(C)cc4)nc3c2=O)cc1, CCc1ccc(-n2c3nc(=O)[nH]c(=O)c-3cc3c(C)nn(-c4ccccc4)c32)cc1, CC(C)CCNC(=O)c1c[nH]c2ccc(S(=O)(=O)Nc3cccc(C(F)(F)F)c3)cc2c1=O, CCc1nnc(NC(=O)CSc2nccn2Cc2ccccc2)s1, Cc1noc(-c2ccc(N3CCCCC3C)c([N+](=O)[O-])c2)n1 (stereo not given)
